± gives the uncertainty stated by the source. The full ranking holds about 9,900 compounds; the median of “viability index relative to DMSO control” is about 1, and the lowest 2% start at about 0.85. This is one part of the list.
System: Plasmodium falciparum NF54 stage V gametocytes
Test: viability index relative to DMSO control (fraction); higher = less gametocyte killing
Conditions: 2.5 µM, incubation time: 72 h
Protocol: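 Broad DOS informer set and blood-stage-active DOS compounds screened in duplicate at 2.5 µM against P. falciparum NF54 stage V gametocytes with the serum-free one-step SaLSSA (1536-well): 72 h at 37 °C under low oxygen, then saponin lysis and MitoTracker Red CMXRos staining, with high-content imaging. Viability index = viable-object count divided by the plate mean of DMSO wells (0 = killed, about 1 = inactive).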

[1] = library set: Broad Institute DOS

`O=C(C[C@@H]1C=C[C@H](NC(=O)Nc2cccc(F)c2)[C@H](CO)O1)NCC1CCCCC1` gave a viability index [1] of 1.01 ± 0.038.
With `C/C=C/c1ccc([C@@H]2[C@H](CO)N3C(=O)CN(C(=O)c4ccncc4)C[C@@H]23)cc1` the viability index [1] was 0.9841 ± 0.0026.
With `CNC[C@@H]1Oc2ccc(NS(=O)(=O)c3ccc(OC)cc3)cc2C(=O)N([C@H](C)CO)C[C@@H]1C` the viability index [1] was 1.04 ± 0.013.
`CO[C@@H]1CN(C)C(=O)c2ccc(NC(=O)NC(C)C)cc2OC[C@@H](C)N(Cc2ccccc2)C[C@H]1C` was tested, and the viability index (library set: Broad Institute Blood Stage) was 0.926 ± 0.045.
`CCCC#Cc1ccc([C@H]2[C@@H](C#N)N(C(=O)CN3CCOCC3)[C@@H]2CO)cc1` was tested, and the viability index [1] was 1.079 ± 0.002.
Work on `COc1cccc(C(=O)Nc2ccc3c(c2)C(=O)N(C)[C@H]2CC[C@H](CC(=O)NCc4ccc(F)cc4)O[C@H]2CO3)c1` yielded a viability index [1] of 1.09 ± 0.048.
Compound `COCC(=O)N1CC(=O)N2[C@H](C1)[C@H](c1ccc(-c3ccncc3)cc1)[C@@H]2CO` has a viability index [1] of 1.06 ± 0.021.
`O=C(NCC[C@H]1CC[C@@H](NS(=O)(=O)Cc2ccccc2)[C@@H](CO)O1)C1CCCCC1` gave a viability index [1] of 1.03 ± 0.13.
Compound `CCCNC(=O)N1C[C@H]2[C@@H](c3ccccc31)[C@@H](CO)N2Cc1cccc(OC)c1` has a viability index [1] of 1.09 ± 0.059.
Work on `Cc1nn(C)cc1NC(=O)C[C@@H]1CC[C@@H]2[C@H](COc3ccc(NC(=O)c4cccc(F)c4)cc3C(=O)N2C)O1` yielded a viability index [1] of 1.15 ± 0.11.
In the case of `O=C(Cc1ccncc1)Nc1ccc2c(c1)[C@@H]1C[C@@H](CC(=O)N3CCc4ccccc4C3)O[C@H](CO)[C@@H]1O2`, the viability index [1] is reported as 1.082 ± 0.0014.
Work on `N#C[C@H]1[C@@H](c2ccccc2)[C@H](CO)N1C(=O)c1ccc2c(c1)OCO2` yielded a viability index [1] of 1.01 ± 0.088.
Compound `CN(C)C(=O)C[C@@H]1CC[C@@H]2[C@@H](COc3ccc(NC(=O)C4CCCCC4)cc3C(=O)N2C)O1` has a viability index [1] of 1.04 ± 0.07.
For `OC[C@H]1[C@@H](c2ccccc2)C2(CN(Cc3nccs3)C2)N1Cc1cc(F)ccc1F`, the viability index [1] was 1.1 ± 0.06.
With `N#Cc1cccc(-c2ccc3c(c2)[C@H]2[C@H](CCN2Cc2ccc4c(c2)OCO4)[C@H](CO)N3)c1` the viability index [1] was 0.955 ± 0.043.
`O=C1CNC[C@@H]2[C@@H](c3ccc(C4=CCCC4)cc3)[C@H](CO)N12` was tested, and the viability index [1] was 1.02 ± 0.12.
`C[C@@H]1CN([C@H](C)CO)C(=O)Cc2cc(NC(=O)CCCCCC(=O)Nc3ccccc3N)ccc2O[C@H]1CN(C)S(=O)(=O)c1cccs1` showed a viability index [1] of 0.92 ± 0.16.
For `COc1ccc2c3c([nH]c2c1)[C@@H](CO)N(C[C@]31CN(Cc2ccccc2Cl)C1)C(C)=O`, the viability index [1] was 1.01 ± 0.02.
`CCCNC(=O)C[C@@H]1CC[C@@H]2[C@H](COc3ccc(NC(=O)CC)cc3C(=O)N2C)O1` was tested, and the viability index [1] was 1.12 ± 0.12.
For `C[C@@H]1CN([C@H](C)CO)C(=O)CCCn2nncc2CO[C@@H]1CN(C)C(=O)Nc1ccc2c(c1)OCCO2`, the viability index [1] was 1.05 ± 0.037.
`N#Cc1cccc(-c2ccc([C@H]3[C@H]4CNC[C@@H]3N4S(=O)(=O)Cc3ccccc3)cc2)c1` showed a viability index [1] of 1.05 ± 0.047.
Work on `CCCNC(=O)N1[C@@H]2Cn3c(ccc(-c4ccc(OC)cc4)c3=O)[C@H]1[C@@H](C(=O)NC1CCC1)[C@@H]2CO` yielded a viability index [1] of 1.09 ± 0.026.
`Cc1noc(C)c1S(=O)(=O)N(C)C[C@@H]1Oc2c(NC(=O)c3ccc(-c4nccs4)cc3)cccc2C(=O)N([C@@H](C)CO)C[C@H]1C` was tested, and the viability index [1] was 0.828 ± 0.018.
In the case of `O=C(C[C@H]1CC[C@@H]2[C@H](COC[C@@H](O)CN2C(=O)c2cnccn2)O1)N1CCN(c2ccccc2)CC1`, the viability index [1] is reported as 1.05 ± 0.11.
In the case of `O=C(CN1CCOCC1)N[C@@H]1CC[C@@H](CCn2cc(C3CC3)nn2)O[C@@H]1CO`, the viability index [1] is reported as 1.14 ± 0.095.
`C[C@H](CO)N1C[C@H](C)[C@@H](CN(C)C(=O)Nc2ccc(C(F)(F)F)cc2)OCCCC[C@H](C)Oc2ccc(NS(=O)(=O)c3cn(C)cn3)cc2C1=O` showed a viability index [1] of 1.04 ± 0.19.
In the case of `COc1cccc(S(=O)(=O)Nc2ccc3c(c2)C(=O)N(C)[C@@H]2CC[C@H](CC(=O)NCC4CCCCC4)O[C@H]2CO3)c1`, the viability index [1] is reported as 0.964 ± 0.022.
For `COCCNC(=O)[C@@H]1[C@@H](CO)[C@@H]2Cn3c(ccc(-c4ccc(F)cc4)c3=O)[C@H]1N2C(=O)NC(C)C`, the viability index [1] was 1.05 ± 0.029.
`COCC(=O)Nc1ccc2c(c1)C(=O)N(C)[C@H]1CC[C@H](CC(=O)NCCCN(C)C)O[C@H]1CO2` showed a viability index [1] of 1.05 ± 0.025.
Work on `O=C(C1CCOCC1)N1CC(=O)N2[C@H](CO)[C@@H](c3ccc(C#CC4CCCCC4)cc3)[C@@H]2C1` yielded a viability index [1] of 1.01 ± 0.045.
`C[C@@H]1CN([C@@H](C)CO)C(=O)CCCn2nncc2CO[C@@H]1CN(C)Cc1ccc(C(=O)Nc2ccccc2N)cc1` was tested, and the viability index [1] was 1.05 ± 0.012.
`CN1C(=O)c2cc(NS(C)(=O)=O)ccc2OC[C@@H]2O[C@@H](CC(=O)N3CCOCC3)CC[C@@H]21` gave a viability index [1] of 1.02 ± 0.084.
`CCS(=O)(=O)N1CC[C@@]2(CC1)CN([C@H](CO)c1c2c2ccc(OC)cc2n1C)C(=O)Nc1c(C)noc1C` showed a viability index [1] of 1.07 ± 0.035.
Work on `CCCNC(=O)N1C[C@]2(CN(C2)C(=O)c2cnccn2)c2c([nH]c3cc(OC)ccc23)[C@H]1CO` yielded a viability index [1] of 0.939 ± 0.058.
`CO[C@H]1CN(C)C(=O)c2cc(NC(=O)c3ccc4c(c3)OCO4)ccc2OC[C@@H](C)N(CCC(F)(F)F)C[C@H]1C` gave a viability index [1] of 1.08 ± 0.015.
`O=C(Nc1cccc(F)c1)N1C[C@@H]2[C@H](c3ccccc31)[C@@H](CO)N2C(=O)Cc1ccccn1` was tested, and the viability index [1] was 1.08 ± 0.019.
`O=C(O)C[C@H]1CC[C@@H]2[C@H](COC[C@H](O)CN2S(=O)(=O)c2ccc(Oc3ccccc3)cc2)O1` gave a viability index [1] of 0.998 ± 0.049.
`O=C(C[C@@H]1CC[C@@H]2[C@H](COC[C@@H](O)CN2C(=O)Cc2ccccc2)O1)NC1Cc2ccccc2C1` gave a viability index [1] of 1.05 ± 0.055.
`COCC(=O)Nc1ccc2c(c1)C(=O)N(C)[C@@H]1CC[C@H](CC(=O)N3CCc4ccccc4C3)O[C@H]1CO2` gave a viability index [1] of 1.01 ± 0.037.
Work on `CC(C)NC(=O)Nc1ccc2c(c1)C(=O)N(C)[C@@H]1CC[C@@H](CC(=O)NCc3ccc(F)cc3)O[C@@H]1CO2` yielded a viability index [1] of 1.06 ± 0.083.
With `CN(C)CC(=O)N1C[C@@H]2N[C@H](C1)[C@H]2c1ccc(-c2ccccc2F)cc1` the viability index [1] was 0.832 ± 0.011.
With `COC(=O)C[C@@H]1CC[C@@H]2[C@H](COC[C@@H](O)CN2S(=O)(=O)c2cn(C)cn2)O1` the viability index [1] was 0.99 ± 0.043.
With `COCC(=O)N1[C@H](CNC(=O)c2ccccn2)[C@H](c2ccccc2)[C@@H]1CO` the viability index [1] was 0.984 ± 0.013.
`CC(C)c1cccc(NC(=O)C[C@H]2CC[C@H]3[C@@H](COc4ccc(NC(=O)NCc5ccccc5)cc4C(=O)N3C)O2)c1` showed a viability index [1] of 1.15 ± 0.082.
`C[C@H](CO)N1C[C@H](C)[C@@H](CN(C)Cc2ccc(Oc3ccccc3)cc2)Oc2c(NC(=O)CCC(F)(F)F)cccc2C1=O` showed a viability index [1] of 0.888 ± 0.11.

From the supplement of paper PMC4723716
